The source of these data is the supplement of paper PMC8277577.

Recombinant human monoclonal antibodies (heavy:light variable regions). ELISA EC50 on the named antigen, from 10 µg/ml down; lower = stronger. No active / inactive call.

The chains are these.
B1: C960 (protein)
chain 1: QVQLVESGGGVVQPGRSLTLSCTASGFTFNRFAMFWVRQAPGKGLEWVAVISFDGSYEHYAESVKGRFAIFRDNPKNTLYLQMNSLRAEDTAVYYCAKSPINYCANGVCYPDSWGQGTLVTVSS
chain 2: NFMLTQPHSVSESPGKTVTISCTGSSGSIANNYVQWYQQRPGSAPTTVIFEDTQRPSGVPDRFSGSIDSSSNSASLNISGLKPEDEADYYCQSFDVNSRWVFGGGTKLTVL
B2: C956 (protein)
chain 1: EVQLVESGGGLVQPGRSLRLSCTGSEFTFGDFSMSWFRQAPGKGLEWVGFIRRKADGGTTEYAASVRGRFTISRDDSKSIAYLVMNSLKSEDTAVYYCTRAWIPTPHDYWGQGVLVTVSS
chain 2: not shown
B3: C957 (protein)
chain 1: EVQLVESGGGLVQPGRSLRLSCTASGFTFADFSMTWFRQAPGKGLEWVGFIRREADGGTTEYAASVRGRFTISRDDSKGIAYLLMNSLKSEDTAMYYCSRAWIPTPHDYWGQGTLVTVSS
chain 2: not shown
B4: C952 (protein)
chain 1: EVQLVQSGAEVKKPGESLTISCKDSGNSFTIYWIGWVRQMPGKGLEWMGMIYPGDSGTRYSPSFEGQVTISADESINTAYLQWRSLKASDTAMYYCVRGIAVDWYFDLWGRGTLVTVSS
chain 2: QSVLTQPPSVSGAPGQRVTISCTGSSSNIGAGFDVHWYQQLPGTAPKLLIYGNNNRPSGVPDRFSGSKSATSASLAITGLQAEDEADYYCQSSDSSLSGLYVFGTGTNVIV
B5: C958 (protein)
chain 1: EVQLVQSGAEVKKPGDSLKISCKGSGYSFISHWIAWVRQKPGKGLEWMGIIHPGDSDTRYSPSIQGQVTISADRFITTAYLQWSSLQASDTAMYYCARRGSSWEIDHWGQGTLVTVSS
chain 2: QSVLTQPPSASGTPGQRVTISCSGSSSNIGSYTVNWYHQVPGTAPKVLIYGNTQRPSGVPDRFSGSKSGTSASLAISGLQSEDEGDYYCAAWDDSLDGWMFGGGTTLTVL
B6: C902 (protein)
chain 1: EVQLVQSGAEVKKPGESLRISCKGSGYSFHTYWIHWVRQMPGKGLEWMGKIDPSDSYTNYSPSFQGHVTFSADRSISTAYLQWSSLKASDTATYYCARLSWSPPTRTTDEKNWFDPWGQGTLVTVSS
chain 2: DIQLTQSPSFLAASAGDRVTITCRASQGISSYLAWYQQKPGKAPKVLIYAASTLQSGVPSRFSGSGSGTEFTLTISSLQPEDCATYYCQQFNSDPLTFGGGTKVEIK
B7: C840 (protein)
chain 1: QVQLVESGGGVVQPGRSLRLSCEASGFTFTAYAMHWLRQAPGKGLEWVAVILNDGSNKLYADSVKGRFTVSRDNSKNMLYLQVNSLRVDDTAVYYCARDGSVDTLMVTWFDYWGQGTLVTVSS
chain 2: DIQMTQSPSSLSASVGDRVTITCRASQSVNNYLNWYQQKPGQAPKLLIYAASSLQSGVPLRFSGSGSGTDFALTITSLHTEDFATYYCQQSYNTPPWTFGPGTKVEIK
B8: C954 (protein)
chain 1: QVQLVQSGAEVKKPGSSVKVSCKASGDTFTNYAFSWMRQAPGQGLEWMGRIIPILGIVKYSQKFQDRVRISADKSTSTAYMDLSSLRSEDTAMYYCARDSEFSTSWFSRGYHGMDVWGQGTTVTVSS
chain 2: DIVMTQSPLSLPVTPGEPASISCRSSQSLLHGDGYNYLDWYLQKPGQSPHLLIYLGSNRTSGVSDRFSGSGSGTDFTLKISRVEAEDVGVYYCMQALQTPPTFGGGTKVEIK
B9: C959 (protein)
chain 1: QVQLQESGPGLVKPSETLSLNCNVSGGSISNYYWSWIRQPPGKGLEWIGFISYSGSTDYNPSLKSRVIISIDTSKKHFSLNLSSVTAADTAVYFCARHYDILTALSWFDPWGQGTLVTVSS
chain 2: QSVLTQPPSVSAAPGQTVTISCSGSSSNIRNNFVSWYQQFPGTAPKLLIYDNNKRPSGIPDRFSGSKSGTSATLGITGLQTGDEADYYCGTWDSSPSACWVFGAGTKLTV
B10: C963 (protein)
chain 1: QVQLVQSGAEVKKPGSSVRVSCKASGGTFSSFTITWVRQAPGQGLEWMGRIIPNLNIPNYAQRFQGRITITAEKSTSTAYLELSSLRSEDTAVYYCARGVGYSGSGSNWYFDLWGRGTLVTVSS
chain 2: QSVLTQPPSVSGAPGQRVTISCTGSSSNIGAGYDVHWYQQLPGTAPKLLISGHINRPSGVPDRFSGSTSGTSASLAITGLQAEDEADYYCQSYDSSLSDSVFGGGTKLTV
B11: C961 (protein)
chain 1: EVQLVESGGGLVQPGGSLRLSCAASGIIVSNNYMSWVRQAPGKGLEWVSTIFSGGSTYYADSVKDRFTISRDNSNNTLYLQMNSLRPEDTAVYYCTRLGGYRYGMDVWGQGTTVTVS
chain 2: DIQMTQSPSSLSASVGDRVTITCQASQDISKYLNWYQQKPGTAPKLLIYDASELERGVPSRFSGSGSGTDFTFTIISLQPEDIATYYCLQYDNLPYTFGQGTKLEIK
B12: C965 (protein)
chain 1: EVQLVESGGGLVKPGRSLRLSCSASGFTFGDYAMTWFRQAPGKGLQWVGFIRSKPFGGTTQYAASVKGRFTISRDDSNNVAYLQMNSLKTEDTGVYYCTRLRQVQGVPGYYFDQWGQGALVTVSS
chain 2: EIVMTQSPATLSVSPGERATLSCRASQSVSSNLAWYQQKPGQAPRLLIYGASIRATGIPARFSGSGSGTEFTLTISSLQSEDFVVYYCQEYDNWFAFGGGTKVEIK
B13: C900 (protein)
chain 1: QVQLQESGPGLVKPSGTLSLTCTVSGGSINSRNWWSWVRQPPGKGLEWIGEIFHSGSTNYNPSLESRVAISIDKSHNHFSLKLTSVTAADTAVYYCARANGILDFWGQGTLVTVSS
chain 2: DIQMTQSPSSLSASVGDRVTITCRASQGISNSLAWYQLKPGKAPKLLLYAASTLESGVPSRFSGSGSGTNFTLTISSLQPEDFASYCCQHYYSSPRTFGQGTKVEI
B14: C901 (protein)
chain 1: QVQLVESGGGVVQPGRSLRIACGASGFTFSTYDMHWVRQAPVKGLEWVAVISRDGSGKFYADSVKGRFTISRDNSKKTLYLQMDSLRPEDTAMYYCARDFESRTWDPPKYYYALDVWGQGTTVTVSS
chain 2: DIQMTQSPSSLSASVGDRVTITCRASQSISTYLNWYQQKPGKAPSLLIYAASSLYSGVPSRFSGSGSGTDFSLTISSLQPEDFATYYCQQTYTTPTWTFGQGTKVEIK
B15: C964 (protein)
chain 1: EVQLVESGGGLVQPGRSLRLSCAASGFTFDDYGMHWVRQAPGKGLEWVSGISWNSGSIAYAEFVKGRFTISRDNAKNSLYLQMNSLRTEDTALYYCAKAVPTSCYVFCALDIWGQGTMVTVSS
chain 2: DIQMTQSPSSLSASVGDRVTITCRASQGISNYLAWYQQSPGKVPKLLIYAASTLQSGVPSRFSGSGSGTDFTLTISSLQPEDVATYYCQKYNSGPALTFGGGTKVEIK
B16: C839 (protein)
chain 1: QVQLQESGPGLVKPLDTLSLTCTVSGASISSYYWSWIRQPAGKGLEWIGLIYSSGSTTYNPSLKSRVTMSVDTSKKQFSLNLSSMTAADTAVYYCARGSALNWKSIGYFDSWGQGTLVTV
chain 2: DIQMTQSPSSLSASIRDRVTITCQASQDISNYLNWYQQKAGEAPKLLIYDASSLETGVPSRFSGSGSGTEFTLTISSLQPEDIATYYCQQYDHVPLTFGGGTKVEIK
B17: C955 (protein)
chain 1: QVQLQQWGAGLLKPSETLSLTCAVYGGTFSGYSWTWIRQPPGKGLDWIGEINHSGSTNYNPSLKSRVTISVDTSKNQFSLKLSSVTAADTAVYYCARAGFGFVITSRSGTDPLFDYWGQGTLVTVSS
chain 2: QSVLTQPPSVSGAPGQRVTISCTGSSSNIGAGYDVHWYQQLPGTAPKVLIYGNNNRPSGVPDRFSGSKSGTSASLAITGLQAEDEADYYCQSYDTSLSGSRVFGGGTKLTVL
B18: C899 (protein)
chain 1: EVQLVESGGGLVKPGGSLRLSCAASGFTFSNAWMSWVRQAPGKGLEWVGRIKSKTDAETTDYAAPVRGRFTISRDNSKNTLYLEMNSLKTEDTAVYYCTTDADYSDSSGYYVTYYFEYWGQGSLVTVSS
chain 2: QSALTQPRSVSGSPGQSVTISCTGSNSDVGGYNYVSWYQQHPGKAPKLVIYDVSLRPSGVPDRFSGSKSGITASLTISGLQPEDEAHYYCCSFAGTYTPWVFGGGTRLTVL
B19: C962 (protein)
chain 1: EVQLVESGGGLVQPGGSLRLSCTASRLTVSSNYMNWVRQAPGKGLEWVSVIYAGGSTFYADSVKDRFTISRDNSMNTLYLQMNSLRVEDTAVYYCARLGGYRYGMDVWGQGTTVTV
chain 2: DIQMTQSPSSLSASVGDRVTITCQASQDISNYLNWYQQSPGKAPKLLIYDASKLETGVPSRFSGSGSGTDFTFTISSLQPEDIATYYCLQYDNLPYSFGQGTKLEI
B20: C898 (protein)
chain 1: QVQLVQSGAEVKKPGSSVKVSCKASGGPFSSYAFTWVRQAPGQGLEWMGGIIATFGTVNYAQKFQGRVTITADEFTSTVNMELSSLRSDDTAVYYCARRDCSTTSCYDEVLYRLVDWGQGTLVTVSS
chain 2: EIVLTQSPGTLSLSPGERATLSCRASQSVNSDYLAWYKQKPGQAPRLLIYGTSSRATGIPDRFSGSGSGTDFTLTISRLEPDDFAVYYCQQYGNSPRTFGQGTKVEIK

The target of the assay is SARS-CoV-2 Wuhan-Hu-1 spike receptor-binding domain. Briefly: ELISA binding EC50; higher = weaker binding; ELISA of recombinant human antibody on coated antigen, from 10 µg/ml in fourfold dilutions; four-parameter fit.
Turning to B1, the “ELISA binding EC50” value is 1.62 ng/mL.

As to B2, the “ELISA binding EC50” value stood at 1.58 ng/mL.

As to B3, the “ELISA binding EC50” value was 1.93 ng/mL.

Consider B4, for which the “ELISA binding EC50” value was determined as 2.4 ng/mL.

Turning to B5, the “ELISA binding EC50” value came to 4.02 ng/mL.

With B6, the “ELISA binding EC50” value is 3.39 ng/mL.

In the case of B7, the “ELISA binding EC50” value worked out at 1.36 ng/mL.

Take B8: the “ELISA binding EC50” value came out at 1.48 ng/mL.

With B9, the “ELISA binding EC50” value was 4.58 ng/mL.

For the molecule B10, the “ELISA binding EC50” value was 2.96 ng/mL.

Regarding B11, the “ELISA binding EC50” value was determined as 2.57 ng/mL.

For B12, the “ELISA binding EC50” value was 1.69 ng/mL.

Turning to B13, the “ELISA binding EC50” value was found to be 2.54 ng/mL.

For the molecule B14, the “ELISA binding EC50” value is 2.16 ng/mL.

In the case of B15, the “ELISA binding EC50” value is 2.79 ng/mL.

Turning to B16, the “ELISA binding EC50” value stood at 4.38 ng/mL.

In the case of B17, the “ELISA binding EC50” value was found to be 2.44 ng/mL.

Regarding B18, the “ELISA binding EC50” value was 2.23 ng/mL.

B19: the “ELISA binding EC50” value is 1.74 ng/mL.

In the case of B20, the “ELISA binding EC50” value was determined as 7.6 ng/mL.
